# Experimental data taken from PubChem BioAssay AID588855 (National Center for Advancing Translational Sciences (NCATS), 2011).
# Out of some 410,000 compounds screened, about 5,000 (1.2%) were called active. Inconclusive results, whose numbers are uncertain, are shown with a selection of clear calls. Calls follow the shape of the dose curve; as a rule, active = well fitted inhibition curve with a large enough effect; inconclusive = small, poorly fitted or top-dose-only effect; inactive = no such curve, though single readings can be large or run the other way. Potencies of inconclusive entries are doubtful fits and often do not repeat.
# Assay: qHTS for Inhibitors of TGF-b; also: nearly all actives have a fitted effect of over 65% in size
# Settings: HepG2 CAGA-GFP TGF-b/SMAD3 reporter, GFP fluorescence, 18 h, TGF-beta stimulated, 500 pg/mL final; series mostly up to 46.1 µM
# How it was run: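 Read-out: total well GFP (ex488/em500-530) summed from mean per-cell fluorescence. Cells: HEPG2 CAGA-GFP, 1% FBS DMEM, 18 h at 37 degrees C with 500 pg/mL final TGF-beta. Unstimulated wells served as the full-inhibition control; stimulated DMSO wells = 0%.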
# Potency is read from the fitted curve at half-maximal effect; tags tell the direction and shape of the fitted curve.
row,Compound,Potency
1,COc1ccc(-c2ccc(/C=C3/C(=N)N4C(C)=CSC4=NC3=O)o2)c([N+](=O)[O-])c1,"inconclusive: 35.5 µM [inhibitor, partial curve, poor fit]"
2,Cc1ccccc1CN1C(=O)C(C)S/C1=N/N=C/c1ccco1 (stereo unspecified),"inconclusive: 7.94 µM [inhibitor, partial curve, poor fit]"
3,Fc1ccc(NCc2ccccc2-c2nnc(-c3ccccc3Cl)o2)cc1Cl,inactive
4,O=C(Cn1c(=O)n(CC2CCCO2)c(=O)c2ccccc21)Nc1ccc(F)cc1F (stereo unspecified),inactive
5,CSc1ccc(CNc2ccc(C)cc2)cc1,"inconclusive: 35.5 µM [inhibitor, single point]"
6,Cc1cccc(-c2ncc(CN3CCN(CC(C)C)C(CCO)C3)cn2)c1 (stereo unspecified),"inconclusive: 31.6 µM [inhibitor, single point]"
7,O=S(=O)(c1ccc(C(F)(F)F)cc1)N1CCCN(c2ccc(C(F)(F)F)cn2)CC1,"inconclusive: 10 µM [inhibitor, partial curve, poor fit]"
8,Cc1cc2nc(-c3ccccc3Br)n(/C=C(\c3ccccc3)n3c(=O)[nH]c4ccccc43)c2cc1C,"inconclusive: 15.8 µM [inhibitor, single point]"
9,CC(=O)c1nnn(-c2ccc(F)cc2F)c1C,inactive
10,O=C(NCc1ccccn1)c1cc2n(n1)C(C(F)(F)F)CC(c1ccco1)N2 (stereo unspecified),"inconclusive: 2.51 µM [inhibitor, single point]"
11,Cc1cc(C)n(C(=O)CNC(=O)C(c2ccccc2)c2ccccc2)n1,inactive
12,Cc1ccc(NC(NC(=O)c2cccs2)C(Cl)(Cl)Cl)cc1C (stereo unspecified),"inconclusive: 35.5 µM [inhibitor, single point]"
13,O=C(COc1ccc(S(=O)(=O)N2CCCCC2)cc1)N1CCCCCC1,"inconclusive: 3.98 µM [inhibitor, single point]"
14,COc1ccc(C(=O)CCS(=O)(=O)c2ccc(C)cc2)cc1OC,"inconclusive: 35.5 µM [inhibitor, single point]"
15,COc1ccc(Cc2noc(CN(C)CC3(N4CCOCC4)CCCCC3)n2)cc1OC,"inconclusive: 20 µM [inhibitor, single point]"
16,CC1(C(=O)Nc2ccc3c(c2)OCCO3)CCN1C(=O)C1(c2ccccc2)CC1 (stereo unspecified),inactive
17,CCCCN(C=O)c1c(CC)nc2ccc(C(=O)NCCc3c[nH]c4ccccc34)cn12,inactive
18,Cc1cccc(Nc2nnc(-c3ccc(C)c(S(=O)(=O)N4CCOCC4)c3)c3ccccc23)c1,"inconclusive: 6.31 µM [inhibitor, single point]"
19,O=[N+]([O-])c1ccccc1SNc1ccccc1,inactive
20,COc1cccc(/C=N/NC(=O)c2ccc([N+](=O)[O-])cc2Cl)c1O,"inconclusive: 1.41 µM [inhibitor, full curve, poor fit]"
21,Cn1c(Oc2cccc(Cl)c2)nc2c1c(=O)n(Cc1ccccc1Cl)c(=O)n2C,inactive
22,CC(C)(C)c1ccc(C(=O)N2CCCC2c2cccs2)cc1 (stereo unspecified),"inconclusive: 11.2 µM [inhibitor, single point]"

row,Compound,Potency
1,Cc1ccc(/C=C2\CCC3=C2OC(N)=C(C#N)C3c2ccc(C)cc2)cc1 (stereo unspecified),inactive
2,Cc1cnc(NC(=O)c2ccc(OCC3CCCO3)cc2)s1 (stereo unspecified),"inconclusive: 0.112 µM [inhibitor, full curve, poor fit]"
3,NC(=Nc1ccc(N)cc1)C(N)=Nc1ccc(N)cc1,inactive
4,CN(C)c1nc(NC(C)(C)C)nc(SCC(=O)Nc2ccccc2)n1,"inconclusive: 35.5 µM [inhibitor, single point]"
5,CCc1c(C)sc(NC(=S)N2CC(C)OC(C)C2)c1C(=O)OC (stereo unspecified),inactive
6,COC(=O)c1sc2cccc(F)c2c1S(=O)(=O)NCc1ccccc1Cl,"inconclusive: 35.5 µM [inhibitor, partial curve, poor fit]"
7,O=C(CN1C(=O)c2ccccc2S1(=O)=O)NC1CC2CCC1C2 (stereo unspecified),"inconclusive: 0.562 µM [inhibitor, full curve, poor fit]"
8,COc1ccc(NC(=O)Cc2coc3cc(C)c(C(C)C)cc23)cc1S(=O)(=O)N1CCOCC1,"inconclusive: 31.6 µM [inhibitor, single point]"
9,COCC(C)NC(=O)NC(=O)c1ccc(Cl)cc1 (stereo unspecified),inactive
10,CCCCN(CCCNC(=O)C1CCN(S(=O)(=O)N2CCOCC2)CC1)c1ccccc1,inactive
11,Cc1ccc(Cn2c(=O)c3ccccc3n3c(CCC(=O)O)nnc23)cc1,inactive
12,Cc1ccc(NS(=O)(=O)c2ccc3[nH]c4c(c3c2)CCCCCC4)cc1C,"inconclusive: 12.6 µM [inhibitor, partial curve, poor fit]"
13,O=C(c1cc(C(=O)N2CCN(c3ccc(F)cc3)CC2)cc([N+](=O)[O-])c1)N1CCN(c2ccc(F)cc2)CC1,"inconclusive: 10 µM [inhibitor, single point]"
14,COC(=O)c1cc(S(=O)(=O)N2CCC(c3cc(OC)ccc3OC)C2)c[nH]1 (stereo unspecified),inactive
15,FC(F)Sc1ccc(NC(=S)NC2CCCCC2)cc1,active: 11.2 µM
16,O=C(NCC(c1cccs1)N1CCOCC1)c1ccccc1NS(=O)(=O)c1ccc(Br)cc1 (stereo unspecified),"inconclusive: 28.2 µM [inhibitor, single point]"
17,CCCCCCCCCC[n+]1cccc2cc(Br)ccc21,"inconclusive: 35.5 µM [inhibitor, single point]"
18,CCOC(=O)c1ccc(NC(=O)c2c(NCc3ccc(OC)c(OC)c3OC)sc3c2CCC(C)C3)cc1 (stereo unspecified),"inconclusive: 14.1 µM [inhibitor, partial curve, poor fit]"
19,O=C(NCC(c1cccnc1)N1CCc2ccccc21)c1cccc(F)c1 (stereo unspecified),"inconclusive: 11.2 µM [inhibitor, single point]"
20,O=C(NCC(c1ccco1)S(=O)(=O)c1cccs1)c1c(F)cccc1F (stereo unspecified),"inconclusive: 1 µM [inhibitor, full curve]"
21,CC(C)(C)OC(=O)N[C@H]1C=C[C@@H](OC(=O)CC(=O)OCC(F)(F)F)C1,inactive
22,CC(C)c1nc(SCC(=O)Nc2ccc(N(C)C)cc2)c2ccccc2n1,inactive

row,Compound,Potency
1,COC(=O)c1cc(=O)nc2scc(C)n12,inactive
2,CCN(CC)C(=O)c1sc2c(c1C)c(=O)n(Cc1ccccc1)c(=O)n2Cc1c(C)cc(C)cc1C,"inconclusive: 35.5 µM [inhibitor, single point]"
3,OC(COc1ccc2c(c1)CCC2)CN1CCN(c2cccc(Cl)c2)CC1 (stereo unspecified),"inconclusive: 35.5 µM [inhibitor, single point]"
4,Cc1cccc(/C=C2\Sc3ccc(C(=O)N4CCCCC4)cc3N(C)C2=O)c1,"inconclusive: 25.1 µM [inhibitor, single point]"
5,CCCc1[nH]nc2c1C(c1ccc(OCCN3CCOCC3)c(OCC)c1)C(C#N)=C(N)O2 (stereo unspecified),"inconclusive: 1.12 µM [inhibitor, full curve, poor fit]"
6,O=C(COC(=O)c1cc(S(=O)(=O)N2CCOCC2)ccc1F)Nc1c(Cl)cccc1C(F)(F)F,"inconclusive: 20 µM [inhibitor, single point]"
7,O=[N+]([O-])c1cc(Cl)cc(C2=NCCN2)c1,inactive
8,CCCN(CC(=O)Nc1ccccc1OC)C(=O)c1cc(-c2ccccc2)nn1-c1ccccc1,"inconclusive: 31.6 µM [inhibitor, single point]"
9,CCCCN(C(=O)CCn1c(=O)oc2ccccc21)c1ccccc1,inactive
10,COC(=O)c1cc(CNC(=O)CC(C)c2ccccc2)ccc1OC (stereo unspecified),"inconclusive: 20 µM [inhibitor, partial curve, poor fit]"
11,COc1ccc(CNC(=O)COC(=O)c2cc(-c3ccc(Cl)s3)nc3ccccc23)cc1,"inconclusive: 3.98 µM [inhibitor, single point]"
12,COc1ccc(-n2cc(CNCCCN3CCCC3=O)c(-c3ccccc3Cl)n2)cc1,"inconclusive: 35.5 µM [inhibitor, single point]"
13,COc1ccc2[nH]c3c(c2c1)CCN1C(=O)C(CC(=O)NCCN2CCOCC2)C[C@H](C(=O)N2CCOCC2)[C@@]31C (stereo partly specified),"inconclusive: 0.398 µM [inhibitor, partial curve, poor fit]"
14,O=C(COC(=O)c1c2c(nc3ccccc13)/C(=C/c1ccco1)CC2)NC1CCCC1,"inconclusive: 22.4 µM [inhibitor, single point]"
15,C=C1CCC[C@]2(C)C[C@H]3OC(=O)C(CNC(C)(CO)CO)[C@H]3CC12 (stereo partly specified),"inconclusive: 25.1 µM [inhibitor, single point]"
16,O=C(C[n+]1cccc2cc(Cl)ccc21)c1ccc(Br)cc1,"inconclusive: 35.5 µM [inhibitor, single point]"
17,CC(Nc1nc(-c2ccccc2F)nc2ccccc12)c1ccccc1 (stereo unspecified),"inconclusive: 22.4 µM [inhibitor, single point]"
18,Cc1ccc2c(=O)c(C(=O)NCc3cccs3)c[nH]c2c1,inactive
19,NS(=O)(=O)c1ccc(Nc2nc(-c3ccccc3)cs2)cc1,"inconclusive: 35.5 µM [inhibitor, single point]"
20,CCOc1ccc(S(=O)(=O)N2CCOCC2)cc1NC(=O)Cc1c(F)cccc1Cl,"inconclusive: 35.5 µM [inhibitor, partial curve, poor fit]"
21,CCOCCN(C(=O)c1ccccc1Cl)c1cccc(C)c1C,"inconclusive: 35.5 µM [inhibitor, single point]"
22,Cc1ccc(NC(=O)CN2C(=O)c3ccccc3Sc3ccc(C(=O)N4CCOCC4)cc32)c(Cl)c1,"inconclusive: 11.2 µM [inhibitor, partial curve, poor fit]"
